Results as given in PubChem BioAssay AID1345082 (National Center for Advancing Translational Sciences (NCATS), 2018).
About 4,000 (4.3%) of roughly 94,000 compounds were called active. Inconclusive results, whose numbers are uncertain, are shown with a selection of clear calls. Calls follow the shape of the dose curve; as a rule, active = well fitted inhibition curve with a large enough effect; inconclusive = small, poorly fitted or top-dose-only effect; inactive = no such curve, though single readings can be large or run the other way. Where the call is inconclusive, the potency comes from a doubtful curve fit.

assay: Cytotoxic Profiling in NIH 3T3 Cell Line of Diverse Libraries Using Quantitative High-Throughput Screening; settings: NIH 3T3 viability, CellTiter-Glo ATP luminescence, 48-72 h; activity change, negative = cytotoxicity: at 96.7 µM (top of the series); series mostly up to 96.7 µM; also: nearly all actives have a fitted effect of over 55% in size
Outline: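 Mouse fibroblast NIH 3T3 cells, 400 per well, received compound via pintool and were incubated for 48 or 72 hr prior to CellTiter-Glo ATP luminescence measurement.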
% is scaled to controls: 0 for no effect and ±100 for the full control effect; potency is read from the fitted curve at half-maximal effect; tags tell the direction and shape of the fitted curve.

SMILES	Potency	activity change, negative = cytotoxicity	outcome
COc1ccccc1CNC(=O)C[C@@H]1c2nc(-c3cccnc3)sc2C[C@@H]2[C@](C)(CO)[C@H](O)CC[C@]21C	active: 79.4 µM		
COc1cccc(CN2CCCCC2c2nc(CCOCC3CCOCC3)no2)c1 (configuration not stated)	inconclusive: 50.1 µM [inhibitor, partial curve, poor fit]		
CCCN1CCC(N2CCCC(Cc3ccccc3)(C(=O)OCC)C2)CC1 (configuration not stated)	inconclusive: 39.8 µM [inhibitor, partial curve]		
COCCNc1cc(-c2ccc3ccccc3n2)c2cc[nH]c2n1	inconclusive: 50.1 µM [inhibitor, partial curve, poor fit]		
CCCN(CC1CCOC1)S(=O)(=O)c1ccc(F)cc1 (configuration not stated)	inconclusive: 50.1 µM [inhibitor, single point]		
Cc1cc(C)cc(-c2ccc(CN3CCCC3C(=O)N3CCCC(C)C3)cc2)c1 (configuration not stated)	inconclusive: 44.7 µM [inhibitor, partial curve, poor fit]		
CCn1cc(S(=O)(=O)N2CCC(CCOc3ccccc3OC)C2)cn1 (configuration not stated)	inconclusive: 35.5 µM [inhibitor, partial curve]		
COc1cccc(CNC(=O)c2ccc3nnc(-c4ccoc4)n3c2)c1	inconclusive: 56.2 µM [inhibitor, partial curve, poor fit]		
O=C(c1ccc2nnc(-c3cncc(Cl)c3)n2c1)N1CCCC1		inactive: -16.9% [at 138 µM]	
COc1ccccc1Nc1ccnc(N2CCCC(C(=O)NC3CCCC3)C2)n1 (configuration not stated)	active: 35.5 µM		
CCCN1CCc2[nH]cnc2C12CCN(C(=O)Cc1ccc3c(c1)OCO3)CC2		inactive: -10%	
COc1ccc(NC(=O)N2CCc3c(C(=O)Nc4ccccc4)cccc32)cc1	inconclusive: 50.1 µM [inhibitor, partial curve, poor fit]		
COc1ccccc1-c1cccc(CN2CCCC(C(=O)N3CCCCC3)C2)c1 (configuration not stated)	inconclusive: 50.1 µM [inhibitor, partial curve, poor fit]		
COc1ccc(NC(=O)C2CCN(C(=O)c3ncn4c3COC(c3ccccc3)C4)CC2)cc1Cl (configuration not stated)		inactive: 0.957%	
Cc1nnc(-c2cc(-c3cccc(F)c3)ccn2)n1CCc1ccccc1	inconclusive: 100 µM [inhibitor, single point]		
O=C(C1CCOCC1)N1CC(c2nnc(-c3ccncc3)o2)C2(CCOCC2)C1 (configuration not stated)	inconclusive: 63.1 µM [inhibitor, partial curve, poor fit]		
COc1ccc(NC(=O)CN2C(=O)NC(c3ccc(Cl)cc3)C3=C2COC3=O)c(OC)c1 (configuration not stated)		inactive: -28%	
COc1ccc(-c2cc3nc4c(c(=O)n3[nH]2)CN(C(=O)CN(C)S(=O)(=O)c2cnc[nH]2)CC4)cc1	inconclusive: 50.1 µM [inhibitor, partial curve, poor fit]		
COc1ccccc1-c1cc(C(=O)Nc2cccc(F)c2)c2cnn(C)c2n1	inconclusive: 79.4 µM [inhibitor, single point]		
COc1ccc(CCNc2ncnc3c2CN(C2CCCNCC2)C(=O)CN3C)cc1 (configuration not stated)		inactive: 0.119%	
COc1ccc(NC(=O)Nc2cccc(-c3ccc(N4CCOCC4)nn3)c2)cc1Cl	inconclusive: 25.1 µM [inhibitor, full curve, poor fit]		

SMILES	Potency	activity change, negative = cytotoxicity	outcome
Cc1nn2c(c1-c1ccccc1[S+](C)(=O)[O-])N(C(=O)c1cccc(O)c1)CCC2	inconclusive: 112 µM [inhibitor, single point]		
CN1C(=O)[C@@H]2C[C@@H](CN2CC2CC2)Oc2ccccc21	inconclusive: 112 µM [inhibitor, partial curve, poor fit]		
O=C(Cc1cccnc1)N1CCN(c2ccc3nnc(C4CC4)n3n2)CC1		inactive: -13.5%	
CSc1cccc(NC(=O)Cn2c(N3CCN(c4ccccc4)CC3)nc(C)cc2=O)c1	inconclusive: 50.1 µM [inhibitor, partial curve, poor fit]		
Cn1cnc2ccc(Nc3cccc(F)c3)nc2c1=O	inconclusive: 50.1 µM [inhibitor, partial curve, poor fit]		
CC(C)CN1C(=O)CO[C@H](c2ccc(NC(=O)C3CCCC3)cc2)[C@H]1CO	inconclusive: 70.8 µM [inhibitor, partial curve, poor fit]		
Cc1nn2c(c1-c1ccccc1[S+](C)(=O)[O-])N(Cc1ccccc1F)CCC2	active: 31.6 µM		
COc1ccc(C(CC(=O)N2CCCC2)c2cn(Cc3ccccc3)c3ccccc23)cc1OC (configuration not stated)	inconclusive: 15.8 µM [inhibitor, full curve, poor fit]		
O=C(c1nc(-c2cccc(C(F)(F)F)c2)c2ccccn12)N1CCCC1	inconclusive: 50.1 µM [inhibitor, partial curve, poor fit]		
COc1ccc2ccc(OCc3nc(C(=O)NCc4csc(N)n4)co3)cc2c1	inconclusive: 44.7 µM [inhibitor, partial curve]		
CN(C(=O)c1cc2ccccc2oc1=O)C1CCCN(CCCc2ccccc2)C1 (configuration not stated)	active: 39.8 µM		
C=CCN(Cc1ccccc1OCC)C(=O)c1ccc(N(C)S(C)(=O)=O)cc1	inconclusive: 56.2 µM [inhibitor, partial curve, poor fit]		
O=C(NCc1ccc2c(c1)OCO2)c1nc(-c2ccc(Cl)cc2Cl)c2ccccn12	inconclusive: 70.8 µM [inhibitor, partial curve, poor fit]		
CC(C)c1nc(-c2ccc(OC3CCN(C(=O)C4(c5ccccc5)CC4)C3)cc2)no1 (configuration not stated)	inconclusive: 35.5 µM [inhibitor, partial curve, poor fit]		
O=C(NC1CCN(c2ccc3nnc(C4CC4)n3n2)C1)c1ccncc1 (configuration not stated)	inconclusive: 100 µM [inhibitor, partial curve, poor fit]		
COc1ccc(C(=O)N2CCC3(CC2)NC(=O)N(Cc2ccccc2)C3=O)cc1F		inactive: -20.3%	
O=C(CCC1CCN(S(=O)(=O)c2ccccc2)CC1)NC1CCCC1	inconclusive: 70.8 µM [inhibitor, single point]		
CCOc1ccc(CC(=O)N2CCC3(CC2)N=C(c2ccccc2)NO3)cc1	inconclusive: 7.94 µM [inhibitor, full curve, poor fit]		
CCCn1nc(C)cc1CN(CC)C(=O)C1CCN(c2cnn(C)c(=O)c2)C1 (configuration not stated)		inactive: -17.6%	
COc1ncccc1-c1cc(-c2cccnc2)c2cncn2c1	inconclusive: 50.1 µM [inhibitor, partial curve]		
CC(=O)Nc1ccc(C(=O)N2CCc3cn(CC(C)C)c4cccc(c34)C2)cc1	inconclusive: 44.7 µM [inhibitor, partial curve, poor fit]		

SMILES	Potency	activity change, negative = cytotoxicity	outcome
CNC(=O)c1cn2cc(-c3ccc(F)cc3)sc2n1	inconclusive: 50.1 µM [inhibitor, partial curve, poor fit]		
O=C(Nc1cccc2ccccc12)O[C@@H]1CO[C@H]2[C@@H]1OC[C@@H]2NS(=O)(=O)c1cccc2cccnc12		inactive: -29.8%	
CN(C)CCCC(=O)N1Cc2ccccc2CC2(CCCCN2Cc2ccccc2)C1 (configuration not stated)	inconclusive: 70.8 µM [inhibitor, partial curve, poor fit]		
CSc1ccc(CN2CCC(CO)(CN3CCCC3)CC2)cc1	inconclusive: 50.1 µM [inhibitor, partial curve, poor fit]		
COCCCNc1cc(-c2cccc(C(F)(F)F)c2)nc2c(C)noc12	inconclusive: 50.1 µM [inhibitor, partial curve, poor fit]		
CN(C)c1cccc(Nc2cc3c(cn2)NCCN(Cc2ccccc2)C3)c1	inconclusive: 44.7 µM [inhibitor, partial curve, poor fit]		
CN(CC(=O)N1CCC(CCOc2ccc(F)cc2)C1)S(=O)(=O)c1cccs1 (configuration not stated)	inconclusive: 44.7 µM [inhibitor, partial curve, poor fit]		
Cc1ccc(C2Cn3nnc(C(=O)N4CCC(C(=O)NCc5cc(F)cc(F)c5)CC4)c3CO2)cc1 (configuration not stated)			inactive
Cc1ccc([S+](=O)([O-])N2CCCC2C(=O)N2CCC3(CC2)CC(=O)Nc2ccccc2O3)cc1 (configuration not stated)	inconclusive: 44.7 µM [inhibitor, partial curve, poor fit]		
Cc1c(CC(=O)NCC(F)(F)F)c2c(n1Cc1ccccc1F)CCCC2=O		inactive: -23%	
CCCNC(=O)[C@@H]1CCCN1[C@@H](C(=O)NC)c1ccc(OC)cc1		inactive: -17.4% [at 174 µM]	
Cc1ccc(CN2CCn3c(nnc3[C@@H]3C[C@@H](O)CN3Cc3cccnc3)C2)s1		inactive: 4.3%	
COc1ccc(-c2noc([C@@H]3C[C@H](NCc4ccccn4)CN3C)n2)cc1	inconclusive: 112 µM [inhibitor, partial curve]		
Cc1ccc(Cn2c(C3CCN(C(=O)Cc4ccccc4)CC3)n[nH]c2=O)cc1		inactive: -7.62%	
O=C(c1ccoc1)N1CCC(CCOc2ccc(F)cc2)C1 (configuration not stated)	inconclusive: 50.1 µM [inhibitor, partial curve, poor fit]		
O=C(C1CCCN(c2ccnc3ccnn23)C1)N1CCCCC1 (configuration not stated)	inconclusive: 50.1 µM [inhibitor, partial curve, poor fit]		
O=C1N(CC2CC2)CCOC12CCN(Cc1ccc(F)c(Cl)c1)CC2		inactive: -28.7% [at 138 µM]	
COc1ccc2[nH]c3c(c2c1)CCN(C)C31CCN(C(=O)COc2ccc(F)cc2)CC1	inconclusive: 50.1 µM [inhibitor, partial curve, poor fit]		
COc1ccccc1Nc1ccnc(N2CCN(C(=O)C3CCCC3)CC2)n1	inconclusive: 10 µM [inhibitor, partial curve, poor fit]		
CC(=O)NC1CCN(c2nc3ncccc3o2)CC1	inactive		
